These results are taken from publication PMC9911399, “Two distinct binding modes provide the RNA-binding protein RbFox with extraordinary sequence specificity”.

Positions count from the first letter of the chain named. This is one part of the list.

To fix the notation:
T1: RBFOX1 RRM RbFoxmut (Fox-RRM*) (Homo sapiens, UniProt Q9NWB1 109-208, R118D;E147R;N151S;E152T)
T1 sequence: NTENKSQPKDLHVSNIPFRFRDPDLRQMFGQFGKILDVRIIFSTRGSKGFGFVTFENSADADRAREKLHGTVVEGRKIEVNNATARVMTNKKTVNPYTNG

B1: CAACGGC (DNA:RNA)
RNA: GGGAGACCGGAAUUCAGAUUGUCCCAACGGCUUAAAUCCCGUCGUAGCCACCA
DNA 1: CAATCTGAATTCCGGTCTCCC
DNA 2: TGGTGGCTACGACGGGATT
B2: GCUGAUA (DNA:RNA)
RNA: GGGAGACCGGAAUUCAGAUUGUCCGCUGAUAUUAAAUCCCGUCGUAGCCACCA
DNA 1: CAATCTGAATTCCGGTCTCCC
DNA 2: TGGTGGCTACGACGGGATT
B3: GUCCCUC (DNA:RNA)
RNA: B1 RNA with C25G, A26U, A27C, G29C, G30U
DNA 1: CAATCTGAATTCCGGTCTCCC
DNA 2: TGGTGGCTACGACGGGATT
B4: UUGGAAG (DNA:RNA)
RNA: B2 RNA with G25U, C26U, U27G, U30A, A31G
DNA 1: CAATCTGAATTCCGGTCTCCC
DNA 2: TGGTGGCTACGACGGGATT
B5: CUACCUA (DNA:RNA)
RNA: B1 RNA with A26U, G29C, G30U, C31A
DNA 1: CAATCTGAATTCCGGTCTCCC
DNA 2: TGGTGGCTACGACGGGATT
B6: GUACUAC (DNA:RNA)
RNA: B1 RNA with C25G, A26U, G29U, G30A
DNA 1: CAATCTGAATTCCGGTCTCCC
DNA 2: TGGTGGCTACGACGGGATT
B7: GGAAAGU (DNA:RNA)
RNA: B1 RNA with C25G, A26G, C28A, G29A, C31U
DNA 1: CAATCTGAATTCCGGTCTCCC
DNA 2: TGGTGGCTACGACGGGATT
B8: UACUCUG (DNA:RNA)
RNA: B1 RNA with C25U, A27C, C28U, G29C, G30U, C31G
DNA 1: CAATCTGAATTCCGGTCTCCC
DNA 2: TGGTGGCTACGACGGGATT
B9: ACGCCGG (DNA:RNA)
RNA: B1 RNA with C25A, A26C, A27G, G29C, C31G
DNA 1: CAATCTGAATTCCGGTCTCCC
DNA 2: TGGTGGCTACGACGGGATT
B10: UUGUGGC (DNA:RNA)
RNA: B1 RNA with C25U, A26U, A27G, C28U
DNA 1: CAATCTGAATTCCGGTCTCCC
DNA 2: TGGTGGCTACGACGGGATT
B11: ACUGUGA (DNA:RNA)
RNA: B2 RNA with G25A, A29U, U30G
DNA 1: CAATCTGAATTCCGGTCTCCC
DNA 2: TGGTGGCTACGACGGGATT
B12: GGCGACG (DNA:RNA)
RNA: B2 RNA with C26G, U27C, U30C, A31G
DNA 1: CAATCTGAATTCCGGTCTCCC
DNA 2: TGGTGGCTACGACGGGATT
B13: GAGGUCC (DNA:RNA)
RNA: B1 RNA with C25G, A27G, C28G, G29U, G30C
DNA 1: CAATCTGAATTCCGGTCTCCC
DNA 2: TGGTGGCTACGACGGGATT
B14: GGCACCU (DNA:RNA)
RNA: B2 RNA with C26G, U27C, G28A, A29C, U30C, A31U
DNA 1: CAATCTGAATTCCGGTCTCCC
DNA 2: TGGTGGCTACGACGGGATT
B15: UUCCCAC (DNA:RNA)
RNA: B1 RNA with C25U, A26U, A27C, G29C, G30A
DNA 1: CAATCTGAATTCCGGTCTCCC
DNA 2: TGGTGGCTACGACGGGATT
B16: UAGUUAG (DNA:RNA)
RNA: B1 RNA with C25U, A27G, C28U, G29U, G30A, C31G
DNA 1: CAATCTGAATTCCGGTCTCCC
DNA 2: TGGTGGCTACGACGGGATT
B17: CAAUAUC (DNA:RNA)
RNA: B1 RNA with C28U, G29A, G30U
DNA 1: CAATCTGAATTCCGGTCTCCC
DNA 2: TGGTGGCTACGACGGGATT
B18: GCCCCUA (DNA:RNA)
RNA: B2 RNA with U27C, G28C, A29C
DNA 1: CAATCTGAATTCCGGTCTCCC
DNA 2: TGGTGGCTACGACGGGATT
B19: CGCGCAA (DNA:RNA)
RNA: B2 RNA with G25C, C26G, U27C, A29C, U30A
DNA 1: CAATCTGAATTCCGGTCTCCC
DNA 2: TGGTGGCTACGACGGGATT
B20: GACUCUG (DNA:RNA)
RNA: B2 RNA with C26A, U27C, G28U, A29C, A31G
DNA 1: CAATCTGAATTCCGGTCTCCC
DNA 2: TGGTGGCTACGACGGGATT
B21: GGGUAGC (DNA:RNA)
RNA: B1 RNA with C25G, A26G, A27G, C28U, G29A
DNA 1: CAATCTGAATTCCGGTCTCCC
DNA 2: TGGTGGCTACGACGGGATT
B22: AUAAAGA (DNA:RNA)
RNA: B1 RNA with C25A, A26U, C28A, G29A, C31A
DNA 1: CAATCTGAATTCCGGTCTCCC
DNA 2: TGGTGGCTACGACGGGATT
B23: GAGAUCA (DNA:RNA)
RNA: B2 RNA with C26A, U27G, G28A, A29U, U30C
DNA 1: CAATCTGAATTCCGGTCTCCC
DNA 2: TGGTGGCTACGACGGGATT
B24: UGCACAC (DNA:RNA)
RNA: B1 RNA with C25U, A26G, A27C, C28A, G29C, G30A
DNA 1: CAATCTGAATTCCGGTCTCCC
DNA 2: TGGTGGCTACGACGGGATT
B25: UGUAUGG (DNA:RNA)
RNA: B1 RNA with C25U, A26G, A27U, C28A, G29U, C31G
DNA 1: CAATCTGAATTCCGGTCTCCC
DNA 2: TGGTGGCTACGACGGGATT
B26: UGGAAGU (DNA:RNA)
RNA: B1 RNA with C25U, A26G, A27G, C28A, G29A, C31U
DNA 1: CAATCTGAATTCCGGTCTCCC
DNA 2: TGGTGGCTACGACGGGATT
B27: CUCCUUU (DNA:RNA)
RNA: B1 RNA with A26U, A27C, G29U, G30U, C31U
DNA 1: CAATCTGAATTCCGGTCTCCC
DNA 2: TGGTGGCTACGACGGGATT
B28: AGGGCUC (DNA:RNA)
RNA: B2 RNA with G25A, C26G, U27G, A29C, A31C
DNA 1: CAATCTGAATTCCGGTCTCCC
DNA 2: TGGTGGCTACGACGGGATT
B29: CCGGAAU (DNA:RNA)
RNA: B2 RNA with G25C, U27G, U30A, A31U
DNA 1: CAATCTGAATTCCGGTCTCCC
DNA 2: TGGTGGCTACGACGGGATT
B30: AGUUUAA (DNA:RNA)
RNA: B2 RNA with G25A, C26G, G28U, A29U, U30A
DNA 1: CAATCTGAATTCCGGTCTCCC
DNA 2: TGGTGGCTACGACGGGATT
B31: GAUCGAG (DNA:RNA)
RNA: B1 RNA with C25G, A27U, G30A, C31G
DNA 1: CAATCTGAATTCCGGTCTCCC
DNA 2: TGGTGGCTACGACGGGATT

The target of this assay is T1, RBFOX1 RRM RbFoxmut (Fox-RRM*). In words: EMSA; HiTS-Eq, 1 nM pool, 10 min; buffer printed only for the single-RNA assays: 10 mM Tris pH 7.5, 150 mM NaCl, 3.4 mM EDTA, 0.001% NP-40, 30 C. The settings on record: tags: His6 N-terminal (pET28a); label: 5' 32P. The method in brief: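 Relative association constants, normalised to the cognate motif, were derived by comparing read counts of each RNA species with those of the control reaction. The RNA sequenced was the free fraction, separated by 8% native PAGE after a 10 min equilibration in 50 µL of 1 nM 5′-radiolabelled RNA (7 randomized nucleotides) with increasing concentrations of purified wild-type or mutant RbFox RRM.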
For orientation: A gel shift assay detects complexes by their altered migration in electrophoresis.
As to B1, the binding signal is 0.0505 KA relative to UGCAUGU.

Take B2: the binding signal was 0.105 KA relative to UGCAUGU.

With B3, the binding signal was 0.076 KA relative to UGCAUGU.

As to B4, the binding signal is 0.141 KA relative to UGCAUGU.

With B5, the binding signal was 0.116 KA relative to UGCAUGU.

Turning to B6, the binding signal is 0.0877 KA relative to UGCAUGU.

As to B7, the binding signal was 0.0964 KA relative to UGCAUGU.

Consider B8, for which the binding signal is 0.0643 KA relative to UGCAUGU.

On to B9, for which the binding signal was 0.0933 KA relative to UGCAUGU.

In the case of B10, the binding signal is 0.11 KA relative to UGCAUGU.

With B11, the binding signal is 0.0816 KA relative to UGCAUGU.

For B12, the binding signal is 0.0951 KA relative to UGCAUGU.

On to B13, for which the binding signal is 0.0681 KA relative to UGCAUGU.

Take B14: the binding signal was 0.109 KA relative to UGCAUGU.

As to B15, the binding signal is 0.0831 KA relative to UGCAUGU.

On to B16, for which the binding signal was 0.106 KA relative to UGCAUGU.

As for B17, the binding signal is 0.0715 KA relative to UGCAUGU.

Turning to B18, the binding signal is 0.0682 KA relative to UGCAUGU.

For the molecule B19, the binding signal is 0.0625 KA relative to UGCAUGU.

Turning to B20, the binding signal is 0.0709 KA relative to UGCAUGU.

As to B21, the binding signal was 0.128 KA relative to UGCAUGU.

In the case of B22, the binding signal is 0.112 KA relative to UGCAUGU.

As to B23, the binding signal was 0.111 KA relative to UGCAUGU.

Turning to B24, the binding signal was 0.0662 KA relative to UGCAUGU.

On to B25, for which the binding signal is 0.394 KA relative to UGCAUGU.

Consider B26, for which the binding signal is 0.13 KA relative to UGCAUGU.

Turning to B27, the binding signal is 0.0833 KA relative to UGCAUGU.

Take B28: the binding signal is 0.0916 KA relative to UGCAUGU.

Take B29: the binding signal is 0.108 KA relative to UGCAUGU.

B30: the binding signal was 0.112 KA relative to UGCAUGU.

In the case of B31, the binding signal is 0.146 KA relative to UGCAUGU.
